# Reference: PubChem BioAssay AID1345083 (National Center for Advancing Translational Sciences (NCATS), 2018)
# The whole screen tested about 94,000 compounds, of which about 6,200 (6.6%) were called active. The inconclusive results got no clear call from the source; some entries with a clear call stand among them for comparison. The call rests on the fitted dose curve; in most records, active means well fitted inhibition curve with a large enough effect; inconclusive means small, poorly fitted or top-dose-only effect; inactive means flat fitted curve, though single readings scatter. Potencies beside an inconclusive call are fits to weak or partial responses and may not hold up.
# Assay: Cytotoxic Profiling in HEK 293 Cell Line of Diverse Libraries Using Quantitative High-Throughput Screening; further: nearly all actives have a fitted effect of over 60% in size
# Details: HEK 293 viability, ATP luminescence (CellTiter-Glo), 48-72 h; series mostly up to 115 µM
# How it was run: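 Luminescence from cellular ATP, measured with CellTiter-Glo, indicates HEK 293 viability. Cells plated at 250 cells/well are treated with compound for 48 or 72 hr at 37 degree Celsius before reagent addition.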
# Potency means the concentration at half of the fitted maximal effect; tags describe the fitted curve by direction and shape.
row,SMILES,Potency
1,O=C(CCn1ccn2nc3c(c2c1=O)CCCC3)Nc1cc(F)cc(F)c1,"inconclusive: 50.1 µM [inhibitor, partial curve, poor fit]"
2,CN1CCC(Cn2ccc3c(N4CCOCC4)nc(-c4ccc5cn[nH]c5c4)cc32)CC1,active: 100 µM
3,Cc1ccc(S(=O)(=O)N2c3ccccc3CC2c2nnc(C3CCOCC3)o2)cc1F (centres undefined),active: 25.1 µM
4,CCc1nc(CN(C)C(=O)C2CCCN2C(=O)C2CCCCC2)no1 (centres undefined),inactive
5,CN1CCC(N2CC[C@H](c3nc4ccccc4[nH]3)C2)CC1,inactive
6,Cn1nc(-c2ccncc2)cc1NC(=O)c1ccc(Cl)cc1,"inconclusive: 28.2 µM [inhibitor, partial curve, poor fit]"
7,O=C(NCCCc1ccccc1F)[C@@]12CNC[C@@H]1CN(Cc1ccccc1)C2,active: 44.7 µM
8,Cc1cc2c(-c3cccnc3)nc(-c3c(C)noc3C)cc2[nH]1,"inconclusive: 50.1 µM [inhibitor, partial curve, poor fit]"
9,CCNC(=O)N[C@@H]1C=C[C@@H](c2c(C)nn(-c3ccc(F)cc3)c2C)C1,active: 89.1 µM
10,CCCC(NC(=O)c1ccc(C#N)cc1)c1ccccc1 (centres undefined),inactive
11,Cc1nncn1C1CCN(S(=O)(=O)c2cccc(Br)c2)CC1,inactive
12,Cc1ccc(O[C@H]2CCOC[C@H]2NC(=O)C2CCS(=O)(=O)CC2)cn1,inactive
13,O=C1CCN(C(=O)[C@@H]2CCCN2C(=O)Nc2ccc3c(c2)OCCO3)CCCCCCN1,inactive
14,CN1CC(=O)N(C2CNC2)Cc2c(NC3CC3)ncnc21,inactive
15,O=C(NCCc1ccccc1F)c1ccc2nnc(-c3ccoc3)n2c1,"inconclusive: 126 µM [inhibitor, single point]"
16,OCC1(CC2CC2)CCCN(c2nccc(C(F)(F)F)n2)C1 (centres undefined),"inconclusive: 50.1 µM [inhibitor, partial curve, poor fit]"
17,Fc1ccc(-c2cnc3n[nH]c(-c4ccc5c(c4)OCO5)c3n2)cc1,"inconclusive: 89.1 µM [inhibitor, partial curve, poor fit]"
18,CC1(c2ccccc2)N(Cc2ccccc2)C(=O)OC12CCN(Cc1ccc(C#N)cc1)CC2 (centres undefined),"inconclusive: 35.5 µM [inhibitor, full curve, poor fit]"
19,CSCc1nc(-c2ccncc2)nn1Cc1ccc2c(c1)OCO2,"inconclusive: 39.8 µM [inhibitor, partial curve]"
20,COc1ccccc1N1CCN(C2CCCN(C3CCN(Cc4ccccc4)CC3)C2)CC1 (centres undefined),"inconclusive: 25.1 µM [inhibitor, full curve, poor fit]"
21,O=C(Cc1cccnc1)N1CCOCC2(CN(Cc3cc(F)cc(F)c3)C2)C1,"inconclusive: 126 µM [inhibitor, single point]"
22,C[C@H]1CN(C(=O)CCCc2ccccc2)C[C@@H]1c1nc(-c2ccccc2)no1,"inconclusive: 89.1 µM [inhibitor, single point]"

row,SMILES,Potency
1,COc1cccc(CCC(=O)N2CCC(N3CC4CC(C3)[C@H]3CCCC(=O)N3C4)CC2)c1 (some centres undefined),"inconclusive: 79.4 µM [inhibitor, partial curve, poor fit]"
2,CCC(=O)NC1CCN(c2ccnc3ccnn23)CC1,inactive
3,NC(=O)[C@H](CCC(=O)O)NC(=O)[C@@]1(O)C[C@@H](O)[C@H](O)[C@@H](NS(=O)(=O)c2cccc(C(F)(F)F)c2)C1,inactive
4,CCn1cc(CN2CCc3nc(N4CCN(C)CC4)[nH]c(=O)c3CC2)c2ccccc21,inactive
5,Cn1nccc1C(=O)N1CCC2(CC1)CC(N(Cc1ccc(F)cc1)C1CC1)CCO2 (centres undefined),"inconclusive: 50.1 µM [inhibitor, partial curve, poor fit]"
6,CN(C)c1ncccc1CNC(=O)COc1ccccc1Cl,"inconclusive: 89.1 µM [inhibitor, partial curve, poor fit]"
7,O=C(Cn1nc2c(cc1=O)CCCCC2)NCCCc1nnc2ccccn12,inactive
8,CC(=O)Nc1ccccc1-c1nccc2c(=O)cc(N(C)c3ccccc3)oc12,inactive
9,O=C([C@H]1CCCN1C(=O)c1ccccc1)N1CCC(N2CCOC2=O)CC1,inactive
10,COc1ccc(-c2noc([C@@H](C)NCC3CCCC3)c2C(=O)O)cc1,"inconclusive: 126 µM [inhibitor, single point]"
11,Cc1cnn(CCC(=O)N2CCC3(CCNCC3)CC2)c1,"inconclusive: 100 µM [inhibitor, single point]"
12,Cn1c(C(=O)N2CCC(N3CCCCC3)CC2)cc2c1CCN(Cc1cccc(F)c1)C2,"inconclusive: 100 µM [inhibitor, single point]"
13,O=C1COCC2(CN1Cc1cccc(OC(F)(F)F)c1)CN(C(=O)Cc1cccnc1)C2,"inconclusive: 89.1 µM [inhibitor, single point]"
14,COc1ccc(-c2nc(C)nc3c2CN(C(=O)c2cccc(Cl)c2)CC3)cc1,"inconclusive: 50.1 µM [inhibitor, partial curve, poor fit]"
15,C#CCNC(=O)c1cc(-c2ccccc2OC)c2cnn(C)c2n1,inactive
16,COC(=O)CNC(=O)C1CCCN(Cc2cccc(-c3cccs3)c2)C1 (centres undefined),inactive
17,O=C(CCn1cnnn1)N1CCCC(CCc2cccc(C(F)(F)F)c2)C1 (centres undefined),active: 17.8 µM
18,CCOc1ccc(CN2CCC(N3CCCC(C(=O)NC4CC4)C3)CC2)cc1 (centres undefined),"inconclusive: 50.1 µM [inhibitor, partial curve, poor fit]"
19,COC(=O)C1=C(C)N=C2SC=C(CC(=O)NCc3ccccc3)N2C1c1cccc(F)c1 (centres undefined),"inconclusive: 50.1 µM [inhibitor, partial curve, poor fit]"
20,Cc1nn(-c2ccc(F)cc2)c(Oc2ccc(F)cc2F)c1CCC(=O)N1CCCC1,"inconclusive: 50.1 µM [inhibitor, partial curve, poor fit]"
21,O=C(c1ccccc1F)N1CC(Oc2cccc(-c3nc(-c4ccccc4)no3)c2)C1,"inconclusive: 50.1 µM [inhibitor, partial curve, poor fit]"
22,Cc1ccc([S+](=O)([O-])NC2CCCN(Cc3ccc(-c4cncnc4)cc3)C2)cc1 (centres undefined),"inconclusive: 10 µM [inhibitor, full curve, poor fit]"
